The source of these data is paper PMC4336329 (PLoS ONE, 2015).

Molecules are shown by their SMILES. Hit rate of the full screen: of about 310,000 compounds, about 2,200 (0.71%) showed an effect of 50% or more. Effects have a minus sign here. The list shows a part of the results.

Sequence of human ether-à-go-go-related gene (hERG) potassium channel (Q12809 whole entry, looked up): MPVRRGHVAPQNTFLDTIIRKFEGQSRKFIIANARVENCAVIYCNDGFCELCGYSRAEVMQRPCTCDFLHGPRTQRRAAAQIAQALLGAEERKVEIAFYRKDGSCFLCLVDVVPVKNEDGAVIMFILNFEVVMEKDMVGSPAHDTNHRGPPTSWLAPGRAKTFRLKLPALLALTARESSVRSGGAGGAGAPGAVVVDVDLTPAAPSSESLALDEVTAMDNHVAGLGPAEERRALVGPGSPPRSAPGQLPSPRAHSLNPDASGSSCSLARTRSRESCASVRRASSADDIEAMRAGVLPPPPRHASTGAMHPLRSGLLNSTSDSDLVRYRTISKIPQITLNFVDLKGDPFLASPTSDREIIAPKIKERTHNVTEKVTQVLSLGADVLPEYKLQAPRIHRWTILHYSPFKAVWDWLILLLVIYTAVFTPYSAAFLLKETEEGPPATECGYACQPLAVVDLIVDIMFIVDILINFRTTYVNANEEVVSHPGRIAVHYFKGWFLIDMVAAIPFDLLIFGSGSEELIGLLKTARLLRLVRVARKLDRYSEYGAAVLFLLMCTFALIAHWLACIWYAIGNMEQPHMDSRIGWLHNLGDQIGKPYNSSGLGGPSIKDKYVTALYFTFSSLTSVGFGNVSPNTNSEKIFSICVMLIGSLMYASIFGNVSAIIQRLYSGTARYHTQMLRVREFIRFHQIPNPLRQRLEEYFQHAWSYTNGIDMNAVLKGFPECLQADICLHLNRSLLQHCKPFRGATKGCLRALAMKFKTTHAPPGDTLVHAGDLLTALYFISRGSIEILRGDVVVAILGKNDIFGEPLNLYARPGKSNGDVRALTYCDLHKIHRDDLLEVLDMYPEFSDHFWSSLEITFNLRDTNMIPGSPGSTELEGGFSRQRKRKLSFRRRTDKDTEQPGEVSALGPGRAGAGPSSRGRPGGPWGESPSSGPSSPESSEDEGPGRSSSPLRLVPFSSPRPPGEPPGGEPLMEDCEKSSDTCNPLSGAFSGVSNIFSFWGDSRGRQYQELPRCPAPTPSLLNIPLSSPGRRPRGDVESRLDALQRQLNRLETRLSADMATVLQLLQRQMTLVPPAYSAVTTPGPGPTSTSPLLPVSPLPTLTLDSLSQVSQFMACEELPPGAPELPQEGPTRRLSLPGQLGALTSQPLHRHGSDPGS

The experiment addresses human ether-à-go-go-related gene (hERG) potassium channel (human, UniProt Q12809). Kind of experiment: primary screen, population patch clamp on CHO cells stably expressing hERG.
For `COc1ccc(N2Cc3ccccc3/C2=N\C(=O)Nc2ccccc2)cc1`, the “hERG current change (%, negative = inhibition) at 1uM” value is 13.2%.

Turning to `Cc1nc(-c2ccc(Cl)cc2)sc1C1(C)CC(c2cccnc2)=NO1` (centres unmarked), the “hERG current change (%, negative = inhibition) at 1uM” value is given as 0.743%. To `Cc1ccc(C(=O)NCc2ccco2)cc1S(=O)(=O)N1CCCC1` belongs 5.92%; to `O=c1c2ccccc2nc(Cc2ccccc2)n1-c1ccccc1O`, 13.2%; to `Cc1c(Br)c([N+](=O)[O-])nn1CCCC(=O)Nc1sc2c(c1C#N)CCC2`, -19.6%. The result for `O=C(O)c1ccc(C=C(c2nc3ccccc3s2)c2nc3ccccc3s2)cc1` reads 13%; that for `CCOC(=O)C1(Cc2cccc(OC)c2)CCCN(C(=O)c2ccccc2C)C1` (centres unmarked), -25.7%.

Take `Cc1ccc(Nc2nc3ccccc3c(=O)[nH]2)cc1C`: the “hERG current change (%, negative = inhibition) at 1uM” value is reported as 13.2%. To `O=C1c2ccccc2C(=O)N1CCc1csc(-c2cccc(F)c2)n1` belongs -3.24%; to `COc1ccc2[nH]c3c(c2c1)CCNC3C.Cl` (centres unmarked), 17.3%; to `COc1cc(CN2CCN(C(=O)c3ccccc3F)CC2)cc(OC)c1OC.O=C(O)C(=O)O`, 8.8%. The result for `CC1CCC2(CC1)NC(=O)N(NC(=O)CCl)C2=O` (centres unmarked) reads 6.31%. The result for `CCN(CC)C(=O)CC(c1ccc(F)cc1)c1ccco1` (centres unmarked) reads 8.39%. On to `Cc1nc2n(n1)CC(O)CS2` (centres unmarked), for which the “hERG current change (%, negative = inhibition) at 1uM” value came out at 9.54%. As to `CCOC(=O)Cn1c(-c2ccccc2)ccc(C#N)c1=O`, the “hERG current change (%, negative = inhibition) at 1uM” value came to 12.8%. The result for `Fc1cccc(CNc2ncnc3cc(Cl)ccc23)c1F` reads 3.49%; that for `CCOc1ccccc1NC(=O)C(C)N1C(=O)c2ccccc2S1(=O)=O` (centres unmarked), 3.71%.

On to `Cc1cc(C)c(S(=O)(=O)NCCCN2CCOCC2)cc1Br`, for which the “hERG current change (%, negative = inhibition) at 1uM” value is 8.21%. In the case of `O=c1cc(O)c2ccc(O)cc2o1`, the “hERG current change (%, negative = inhibition) at 1uM” value is 16.5%. As to `O=C(CCCN=C1NS(=O)(=O)c2ccccc21)OCC(=O)c1ccc(Br)cc1`, the “hERG current change (%, negative = inhibition) at 1uM” value is 4.3%. The result for `COc1ccc(C)cc1S(=O)(=O)N(C)CC(=O)NCc1ccccn1` reads 15%. Consider `CCCNC(=O)Nc1ccccc1SC`, for which the “hERG current change (%, negative = inhibition) at 1uM” value came to 7.96%.

Regarding `O=S(=O)(NCc1ccccc1)c1ccc(S(=O)(=O)N2CCCCC2)cc1`, the “hERG current change (%, negative = inhibition) at 1uM” value is -0.125%. The result for `O=C(O)/C=C\C(=O)N1CCc2ccccc21` reads 16.9%; that for `CC1CCCC(NC(=O)c2ccc3c(c2)NC(=O)CS3)C1C` (centres unmarked), 10.6%. The result for `CC1CCN(c2nc3nonc3nc2Nc2ccc(F)cc2)CC1` reads -10.8%. To `COc1ccc(CC(=O)NC(C)CCc2ccccc2)cc1` (centres unmarked) belongs 14%; to `Cc1cccc(OP(=O)(Nc2ccc(F)cc2)Oc2cccc(C)c2)c1`, 9.75%; to `CC(=O)c1c(N)n(C)c(=O)n(C)c1=O`, 3.56%. In the case of `O=C(/C=C/c1cc(Br)ccc1F)Nc1cccnc1`, the “hERG current change (%, negative = inhibition) at 1uM” value turned out to be 15%.

For the compound `COc1ccc(-n2cc(-c3ccccc3)[n+]3c2CCCCC3)cc1.[Br-]`, the “hERG current change (%, negative = inhibition) at 1uM” value is recorded as -0.434%. To `CCOC(=O)Nc1ccc2c(c1)N(C(=O)N(C)C)c1ccccc1CC2` belongs 0.0121%. To `CCOc1ccccc1N1CCN(C(=O)c2c(Cl)cnn2C)CC1` belongs 6.85%; to `CCc1cccc(CC)c1NC(=S)Nc1ccc2cn[nH]c2c1`, 4.51%.

Regarding `NC(=O)NC(=O)COC(=O)c1ccc2c(c1)C(=O)N(Cc1ccccc1)C2=O`, the “hERG current change (%, negative = inhibition) at 1uM” value was determined as 14.7%.

For `COc1ccccc1NC(=O)c1cccnc1`, the “hERG current change (%, negative = inhibition) at 1uM” value is 12%. The result for `Cc1ccc2nc(S(=O)(=O)O)[nH]c2c1` reads -5.26%; that for `CN(C)c1ccc(C2CC(=O)OC3=C2C(=O)CC(C)(C)C3)cc1` (centres unmarked), 17.4%. As to `N#Cc1ccccc1OCCn1cncn1`, the “hERG current change (%, negative = inhibition) at 1uM” value is recorded as 17.1%. `O=C(O)c1ccc(N=c2oc3cc(O)ccc3cc2C(=O)NCc2ccccc2)cc1`: the “hERG current change (%, negative = inhibition) at 1uM” value is reported as 7.23%. The result for `Cc1c(C)c2ccc(OCC(=O)Nc3ccc(S(N)(=O)=O)cc3)c(C)c2oc1=O` reads 20.1%; that for `O=C(CN1CCOCC1)Nc1scc(-c2ccccc2)c1C(=O)N1CCOCC1`, 1.74%; that for `O=C(Nc1ccccc1)c1ccc(F)c(S(=O)(=O)N2CCOCC2)c1`, 13.9%. The result for `CC(C)(C)C(=O)NC(=S)NCCc1ccccc1` reads 6.02%. To `CN1CCN(/N=C/c2nc(-c3cccc([N+](=O)[O-])c3)n3ccccc23)CC1` belongs -1.73%; to `COc1cc(OC)cc(C(=O)N2CCN(c3ccccc3F)CC2)c1`, 4.21%; to `N#Cc1c(-c2ccco2)nc(SCc2ccc(F)cc2)[nH]c1=O`, -3.33%. On to `O=C(Cn1ccc(C(F)(F)F)n1)NNC(=O)c1cccnc1`, for which the “hERG current change (%, negative = inhibition) at 1uM” value is on record as 2.73%. The result for `CCSC(=O)N(CC)CC(=O)Nc1c(CC)cccc1CC` reads 8.22%; that for `O=C(CSc1nnc(-c2ccncc2)n1CC1CCCO1)Nc1ccccc1Cl` (centres unmarked), -11.7%; that for `Cc1ccc(S(=O)(=O)CCSc2cccc(C(=O)O)c2)cc1`, 16%. The result for `O=C(c1cccc(S(=O)(=O)N2CCOCC2)c1)N1CCN(c2ccccc2)CC1` reads 5.7%.

For `COC(=O)c1cc(CNC(=O)c2cccc(Cl)c2Cl)ccc1OC`, the “hERG current change (%, negative = inhibition) at 1uM” value is -7.93%. Regarding `O=c1c2ccccc2nc(/C=C/c2cccnc2)n1CCc1ccccc1`, the “hERG current change (%, negative = inhibition) at 1uM” value was -0.034%. As to `COc1ccccc1CCCNC(=O)C1CCC(=O)N(CCN2CCOCC2)C1` (centres unmarked), the “hERG current change (%, negative = inhibition) at 1uM” value amounted to 2.42%. The result for `ClC(/C=N/n1cnnc1)=C/c1ccccc1` reads 12.5%; that for `CC1(C)C2CCC1(CS(=O)(=O)N1CCN(c3ccccc3F)CC1)C(=O)C2` (centres unmarked), 19.9%; that for `COc1ccc(CNC(=O)C(=O)NCC2CCCN2S(=O)(=O)c2ccccc2)cc1` (centres unmarked), -5.82%.

Consider `CCN(CC)C(=S)NC(=O)c1ccc(F)cc1`, for which the “hERG current change (%, negative = inhibition) at 1uM” value was found to be 7.73%. For the compound `CCOC(=O)C1CCN(c2c(NCc3ccc(C(=O)Nc4ccc(C)cc4)cc3)c(=O)c2=O)CC1`, the “hERG current change (%, negative = inhibition) at 1uM” value worked out at 11.4%.

Take `COCCNC(=O)C1CCC(CNS(=O)(=O)c2c(C)cc(C)cc2C)CC1` (centres unmarked): the “hERG current change (%, negative = inhibition) at 1uM” value is reported as 7.32%.

Consider `CN1CCN(c2nc3c(c(=O)[nH]c(=O)n3C)n2CCCSc2ncccn2)CC1`, for which the “hERG current change (%, negative = inhibition) at 1uM” value is 1.05%. For the compound `Nc1ccccc1OCP(=O)(c1ccccc1)c1ccccc1`, the “hERG current change (%, negative = inhibition) at 1uM” value came out at 6.57%. With `CC(C)(C)NC(=O)COC(=O)c1ccc2c(c1)C(=O)N(Cc1ccco1)C2=O`, the “hERG current change (%, negative = inhibition) at 1uM” value stood at 12.8%. In the case of `Cc1ccc(C(=O)N/C(=C\c2cccc([N+](=O)[O-])c2)C(=O)NCc2ccncc2)cc1`, the “hERG current change (%, negative = inhibition) at 1uM” value is on record as -65.3%. In the case of `CCOC(=O)c1ccc(NC(=O)CCn2nnc3ccccc32)cc1`, the “hERG current change (%, negative = inhibition) at 1uM” value came to 7.89%. To `CC1(NC(=O)Cc2ccc(Cl)c(Cl)c2)CCS(=O)(=O)C1` (centres unmarked) belongs 8.08%; to `O=C1CCCC/C1=C\Nc1ccc(Cl)cn1`, 18.8%; to `Cc1ccc2c(c1)[nH]c1c(N3CCN(Cc4ccccc4)CC3)ncnc12`, 11.6%. To `O=S(=O)(c1cccc2ccccc12)N1CCSC1` belongs 3.27%; to `COc1ccc(CNC(=O)CS(=O)Cc2nc(-c3ccccc3C)oc2C)cc1` (centres unmarked), 1.07%.

On to `Cc1cccc(CN2CCC(CNC(=O)Nc3ccc(F)c(Cl)c3)CC2)c1`, for which the “hERG current change (%, negative = inhibition) at 1uM” value is -13%. The result for `Cc1ccc(S(=O)(=O)N(C)c2ccc(OC(C)C(=O)N3CCCC3)cc2)cc1C` (centres unmarked) reads -5.63%. The result for `Cc1ccc2c(c1)C(=C(C#N)C#N)C(=O)N2CCN1CCOCC1` reads 12.1%; that for `O=C(CN1C(=O)NC2(CCCCC2)C1=O)Nc1ccc(N2CCOCC2)cc1`, 21.8%; that for `Cc1ccc(NC(=O)COC(=O)CCc2ccc(S(=O)(=O)N3CCOCC3)cc2)cc1F`, 7.33%. The result for `O=C(NCc1ccco1)c1ccc(CS(=O)Cc2cccc(Cl)c2)o1` (centres unmarked) reads 4.88%; that for `O=C(NCc1cccc(Cl)c1)C1CCC(=O)N(CC2CCCCC2)C1` (centres unmarked), 8.23%; that for `Nc1nc2c(s1)C(=O)CCC2`, 6.66%. Turning to `CSc1cc(C)c(OCC(=O)Nc2ccc(NC(C)=O)cc2)c(C)c1`, the “hERG current change (%, negative = inhibition) at 1uM” value amounted to 0.286%. To `CN1C(=O)N(CC(=O)N2CCN(S(=O)(=O)c3ccc(Cl)s3)CC2)C(=O)C12CCCCC2` belongs -1.65%; to `Cc1ccc(NC(=O)CN2C(=O)COc3ccc(S(=O)(=O)N4CCCC4)cc32)c(C)c1`, 14.8%; to `Fc1ccc(F)c(CN2CCN(c3ncccn3)CC2)c1`, 7.59%. With `COc1ccc(CN(C)C(=O)[C@H](Cc2ccccc2)NC(=O)c2ccco2)c(OC)c1`, the “hERG current change (%, negative = inhibition) at 1uM” value was found to be 9.47%. As to `CN1CCc2c(OCC(=O)NC3CCCCC3)cccc2C1=O`, the “hERG current change (%, negative = inhibition) at 1uM” value turned out to be 14.3%.

`CC(C)(C)c1ccccc1NC(=O)c1cccnc1`: the “hERG current change (%, negative = inhibition) at 1uM” value is recorded as 10.8%.

Consider `O=C(Nc1ccc(Oc2cccc(C(F)(F)F)c2)nc1)c1ccccc1`, for which the “hERG current change (%, negative = inhibition) at 1uM” value amounted to 16.8%. The result for `Cc1ccc(NC(=O)CN(C)C(=O)c2cc(-c3ccco3)nc3ccccc23)cc1` reads 4.08%. Consider `CCC(=O)c1ccc2ncccc2c1`, for which the “hERG current change (%, negative = inhibition) at 1uM” value stood at 9.26%.

For the compound `CCn1c(=O)cc(OCC(=O)N(C)C2CCCCC2)c2ccccc21`, the “hERG current change (%, negative = inhibition) at 1uM” value came to 8.02%.

For the compound `NC(=O)c1cc2nc(-c3ccco3)cc(C(F)(F)F)n2n1`, the “hERG current change (%, negative = inhibition) at 1uM” value was 8.62%.

Take `CCc1c(C)c(C#N)c2nc3ccccc3n2c1Nc1c(C)n(C)n(-c2ccccc2)c1=O`: the “hERG current change (%, negative = inhibition) at 1uM” value is on record as -5.95%.
